# Measured values: the supplement of paper PMC3334620
# The full ranking holds about 33,000 sequences; the median of “E-score (-0.5 to 0.5)” is about -0.032, and the highest 2% start at about 0.36. This is one part of the list.
# Biological target: T1, Sko1 (UniProt Q02100)
# T1 sequence: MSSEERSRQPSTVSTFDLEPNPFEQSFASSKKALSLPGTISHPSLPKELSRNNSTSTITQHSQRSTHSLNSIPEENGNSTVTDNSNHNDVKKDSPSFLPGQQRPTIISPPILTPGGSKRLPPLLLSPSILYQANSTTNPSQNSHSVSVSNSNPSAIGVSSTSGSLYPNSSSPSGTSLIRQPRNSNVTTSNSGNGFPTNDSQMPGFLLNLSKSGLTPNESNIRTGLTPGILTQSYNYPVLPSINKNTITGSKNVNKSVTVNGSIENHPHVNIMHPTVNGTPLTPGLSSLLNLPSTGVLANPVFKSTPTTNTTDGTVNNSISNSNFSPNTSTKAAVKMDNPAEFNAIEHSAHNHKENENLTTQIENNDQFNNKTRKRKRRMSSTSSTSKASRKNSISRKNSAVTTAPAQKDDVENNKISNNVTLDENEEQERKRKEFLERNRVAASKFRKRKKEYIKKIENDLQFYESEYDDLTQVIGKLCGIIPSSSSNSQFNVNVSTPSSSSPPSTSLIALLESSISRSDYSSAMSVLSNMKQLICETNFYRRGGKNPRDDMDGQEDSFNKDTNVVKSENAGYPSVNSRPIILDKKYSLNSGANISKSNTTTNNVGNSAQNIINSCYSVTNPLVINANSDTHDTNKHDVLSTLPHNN
# Assay: PBM E-score (8-mer binding enrichment) (E-score (-0.5 to 0.5)); higher = stronger / more preferred TF binding; most listed sequences are background and not binding sites
# Conditions: protein concentration: 200 nM; construct: GST-full length
# Method in brief: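 Full-length yeast transcription factors or their DNA-binding domains, GST-tagged and expressed with PURExpress, were applied at about 100-200 nM to universal all-10-mer Agilent arrays. These arrays had been made double-stranded by primer extension on fresh or once-stripped slides. Detection used fluorescent anti-GST, normalisation used masliner, and E-scores for ungapped eight-base words pooled with reverse complements came from the Universal PBM Analysis Suite.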
row,Sequence,PBM E-score
1,GTATGTGA,0.215
2,CGTAAACA,0.374
3,ACACCCAG,-0.211
4,TCCCTTCA,-0.0391
5,AACATCGG,-0.109
6,AATAAGGG,0.0929
7,CTATCCAA,-0.0885
8,GGCACCTA,-0.254
9,AGCATCTA,-0.0134
10,CACATCGG,-0.173
11,AAACATTG,0.00049
12,AGTAATTC,0.169
13,AGTCGAGC,-0.148
14,AGAGAATA,-0.0362
15,GTGCATTA,0.253
16,GCAGCCTA,-0.0705
17,TGTATACA,0.235
18,CGAATCCA,-0.15
19,ATTTAAGC,0.207
20,ACTTTGAC,0.147
21,ATGAAGCA,-0.0889
22,ACTAGAAA,0.197
23,AACCCAAC,0.0767
24,GATTCCTA,-0.00139
25,TAGTCCCA,-0.123

row,Sequence,PBM E-score
1,CATTAGCG,0.0166
2,AGCGCATG,-0.187
3,AGAGATGA,0.169
4,AGCAGAAA,0.0567
5,ATGCTCAG,-0.11
6,CTCAATAC,0.197
7,GTTCATGA,0.14
8,CATTTTGC,0.114
9,CATCAACC,0.16
10,GGTCAACA,-0.04
11,AACCAGCG,-0.0665
12,AGGGATAC,-0.115
13,GTTGCTGA,0.126
14,CCTTTTCC,-0.226
15,ACAAACAC,0.226
16,CGCTACCA,-0.218
17,AAACGAAC,0.0425
18,GGAGATGA,0.0286
19,TACGAGCA,0.024
20,GGTGATGA,0.18
21,CAACACCA,-0.0218
22,CCGATGGA,-0.147
23,GAAGACAC,0.114
24,CGTTTAAA,0.277
25,AATGCACG,0.302

row,Sequence,PBM E-score
1,CAGTTTAC,0.132
2,AGTTTAGC,-0.114
3,GACCTCGC,-0.122
4,CAAAATCC,0.0611
5,ATAACCAA,0.136
6,ATAATCCC,-0.0805
7,AAGTCACG,0.126
8,AGCCACAA,-0.106
9,GCAACCGA,-0.129
10,GGATGTGA,-0.191
11,AATAGTGG,-0.0108
12,TCTAAGCA,0.0417
13,AAAAATCT,0.143
14,GGAATTCC,-0.296
15,AGAGTTAA,0.0436
16,CGGTCGGC,-0.416
17,AACGAGGA,-0.00299
18,GAACCCGC,-0.23
19,CGAAGTTC,-0.0101
20,AACTTGCC,-0.0206
21,AACCCGTG,-0.216
22,GAACTCGA,0.0384
23,CACCAATG,0.00918
24,AGAAAAGA,0.0187
25,AGAGTCGG,-0.157

row,Sequence,PBM E-score
1,TCTACGCA,0.32
2,GGTCTTTA,0.00742
3,ATGCGAAC,0.0655
4,AATCGAGA,0.119
5,ATCGTTAG,0.0767
6,CATTTACG,0.369
7,AACCTGCT,-0.0612
8,CCGCGCTC,-0.118
9,AGAATTAG,-0.012
10,ATGCCTAC,-0.249
11,GTTTGTCA,0.122
12,TGAAGCAA,-0.0667
13,CCTGACTA,0.0618
14,ATAATCTC,0.143
15,ATCCCGAC,-0.0708
16,ATTGGTAG,-0.0367
17,AAAAGCAA,0.0963
18,GCCGTAGA,-0.126
19,GGTAAGTA,0.0153
20,ACAAGACA,0.0553
21,ACCGATAC,-0.053
22,AGGGGCAG,-0.291
23,AATAGCAA,0.132
24,CGTAGTAG,0.309
25,ATTTCGAG,0.138

row,Sequence,PBM E-score
1,ATACGGAG,-0.018
2,GCTTCTTA,0.0735
3,GAATCGCA,-0.0842
4,CGTAGCGC,0.11
5,ATGCGTTA,0.247
6,CTAGTTCC,-0.00523
7,CTCCAAAC,-0.0765
8,CACGTTTA,0.321
9,CTCACCTA,-0.0336
10,GTGAACCA,0.0754
11,TACTCCTA,-0.022
12,GGTGTGCA,-0.117
13,AGGTCCCA,-0.0642
14,CCAGGTGC,-0.141
15,AGTAGGTC,-0.0186
16,CGGGGGAA,-0.318
17,AGTAGGAA,-0.0265
18,ACCTAGAC,-0.00777
19,CAGGTCCG,-0.267
20,AGCTTAGG,-0.198
21,CCGGTCCA,-0.385
22,GACAGTTA,-0.13
23,AGATCACG,0.237
24,AGAACTGC,-0.0612
25,TCCGCGAA,-0.0984

row,Sequence,PBM E-score
1,CGACTAAA,0.0341
2,AGCACAGG,-0.179
3,TCACTAAA,0.136
4,ATCACGAA,0.162
5,AAATAAAG,-0.0497
6,ACCTCGAT,-0.16
7,AAGACAGG,-0.144
8,CTTTATGA,0.128
9,GAGAGTCC,-0.26
10,AAAAGCGG,-0.214
11,AATTGTAG,0.15
12,CCGCGAAG,-0.271
13,AGTGTCCA,0.00039
14,CGACGCCA,0.174
15,AAACGGAT,0.134
16,GCCGAATA,-0.0896
17,GCACTTAA,0.109
18,ACCTGACT,-0.0826
19,CCGTCTAC,0.0306
20,CTTTCAAA,0.185
21,ATTGCTCG,-0.0663
22,CCGAGGCA,-0.263
23,CACGCCTC,-0.0948
24,ACGCAGTC,0.155
25,GGCTACGA,0.127

row,Sequence,PBM E-score
1,AGGACCCA,-0.242
2,CCATGCGC,-0.248
3,AATTGGAC,-0.0273
4,CCTAGTAA,-0.21
5,AATGTACA,0.273
6,CATCATCC,0.257
7,CAGAATCA,0.16
8,GGTGCACC,-0.207
9,AACTATAG,-0.111
10,CTCGACCA,-0.36
11,GTTCTTAA,0.0342
12,CTTTCTGC,-0.0825
13,CTTAATCC,-0.16
14,CATCGGTA,-0.0845
15,GCAGTCCC,-0.188
16,GGGGTGAA,-0.168
17,ATTGGTGG,-0.0357
18,ACGTACAT,0.449
19,GTCATAGA,0.406
20,CCGTGAAG,-0.144
21,AATGATCA,0.0979
22,GCATTCGC,-0.0755
